# Test results as given in the supplement of paper PMC8728848.
# Some of the results follow.
# Columns and labels:
# Assay in all cases: glycan array binding signal (z-score within array); higher = stronger binding
# Conditions in all cases: glycan notation: IUPAC condensed, linker removed
# [1] = biological target: GlcNAc(a1-4)Gal(b1-4)GalNAc
# How it was run: (§1)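 Columns mapping to the same glycan were averaged after glycan names were converted to IUPAC-condensed notation. The data come from 3228 arrays in the Consortium for Functional Glycomics database, limited to those with an available protein sequence. Binding is reported as a within-array Z-score averaged across arrays of one protein sequence and across linkers.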
# [2] = biological target: GlcNAc(a1-4)Gal(b1-4)GlcNAc
# How it was run: as §1
# [3] = biological target: GlcNAc(a1-4)Gal(b1-4)GlcNAc(b1-3)Gal(b1-4)Glc
# How it was run: as §1
# [4] = biological target: GlcNAc(a1-4)Gal(b1-4)GlcNAc(b1-3)Gal(b1-4)GlcNAc
# How it was run: as §1
# [5] = biological target: GlcNAc(a1-4)Gal(b1-4)GlcNAc(b1-3)Gal(b1-4)GlcNAc(b1-3)Gal(b1-4)GlcNAc
# How it was run: as §1
# [6] = biological target: GlcNAc(a1-4)Gal(b1-4)GlcNAc(b1-3)Gal(b1-4)[Fuc(a1-3)]GlcNAc(b1-3)Gal(b1-4)[Fuc(a1-3)]GlcNAc
# How it was run: as §1
# [7] = biological target: GlcNAc(a1-6)Gal(b1-4)GlcNAc
# How it was run: as §1
# [8] = biological target: GlcNAc(b1-2)Gal(b1-3)GalNAc
# How it was run: as §1
# [9] = biological target: GlcNAc(b1-2)Man(a1-3)[GlcNAc(b1-2)Man(a1-6)]Man(b1-4)GlcNAc(b1-4)GlcNAc
# How it was run: as §1
# [10] = biological target: GlcNAc(b1-2)Man(a1-3)[GlcNAc(b1-2)Man(a1-6)]Man(b1-4)GlcNAc(b1-4)[Fuc(a1-6)]GlcNAc
# How it was run: as §1
# [11] = biological target: GlcNAc(b1-2)[GlcNAc(b1-4)]Man(a1-3)[GlcNAc(b1-2)Man(a1-6)]Man(b1-4)GlcNAc(b1-4)GlcNAc
# How it was run: as §1
# [12] = biological target: GlcNAc(b1-3)Gal
# How it was run: as §1
# [13] = biological target: GlcNAc(b1-3)Gal(b1-3)GalNAc
# How it was run: as §1
# [14] = biological target: GlcNAc(b1-3)Gal(b1-4)Glc
# How it was run: as §1
# [15] = biological target: GlcNAc(b1-3)Gal(b1-4)GlcNAc
# How it was run: as §1
# [16] = biological target: GlcNAc(b1-3)Gal(b1-4)GlcNAc(b1-3)Gal(b1-4)GlcNAc
# How it was run: as §1
# [17] = biological target: GlcNAc(b1-3)GalNAc
# How it was run: as §1
# [18] = biological target: GlcNAc(b1-3)Man
# How it was run: as §1
# [19] = biological target: GlcNAc(b1-3)[GlcNAc(b1-4)][GlcNAc(b1-6)]GlcNAc
# How it was run: as §1
# [20] = biological target: GlcNAc(b1-3)[GlcNAc(b1-6)]Gal(b1-4)GlcNAc
# How it was run: as §1
# [21] = biological target: GlcNAc(b1-3)[GlcNAc(b1-6)]GalNAc
# How it was run: as §1
# [22] = biological target: GlcNAc(b1-4)Gal(b1-4)GlcNAc
# How it was run: as §1
# [23] = biological target: GlcNAc(b1-4)GlcNAc
# How it was run: as §1
# [24] = biological target: GlcNAc(b1-4)GlcNAc(b1-4)GlcNAc
# How it was run: as §1
# [25] = biological target: GlcNAc(b1-4)GlcNAc(b1-4)GlcNAc(b1-4)GlcNAc(b1-4)GlcNAc
# How it was run: as §1
# [26] = biological target: GlcNAc(b1-4)GlcNAc(b1-4)GlcNAc(b1-4)GlcNAc(b1-4)GlcNAc(b1-4)GlcNAc
# How it was run: as §1
# [27] = biological target: GlcNAc(b1-4)[GlcNAc(b1-6)]GalNAc
# How it was run: as §1
# [28] = biological target: GlcNAc(b1-6)Gal(b1-4)GlcNAc
# How it was run: as §1
# [29] = biological target: GlcNAc(b1-6)GalNAc
# How it was run: as §1
# [30] = biological target: GlcNAc3Prop(b1-4)GlcNAc
# How it was run: as §1
# [31] = biological target: GlcNAc6S(b1-3)Gal(b1-4)GlcNAc
# How it was run: as §1
# [32] = biological target: Kdn(a2-3)Gal(b1-3)GalNAc
# How it was run: as §1
# [33] = biological target: Kdn(a2-3)Gal(b1-3)GlcNAc
# How it was run: as §1
# [34] = biological target: Kdn(a2-3)Gal(b1-4)Glc
# How it was run: as §1
# [35] = biological target: Kdn(a2-3)Gal(b1-4)GlcNAc
# How it was run: as §1
binder,measurement,setting,value
"Ecp6 (Cladosporium fulvum), B3VBK9 (protein) MQSMILFAAALMGAAVNGFVLPRTDDPDCETKATDCGSTSNIKYTVVKGDTLTSIAKKFKSGICNIVSVNKLANPNLIELGATLIIPENCSNPDNKSCVSTPAEPTETCVPGLPGSYTIVSGDTLTNISQDFNITLDSLIAANTQIENPDAIDVGQIITVPVCPSSQCEAVGTYNIVAGDLFVDLAATYHTTIGQIKALNNNVNPSKLKVGQQIILPQDCKNVTTAVA",glycan array binding signal (z-score),[1],-0.097
same,glycan array binding signal (z-score),[2],-0.078
same,glycan array binding signal (z-score),[3],-0.105
same,glycan array binding signal (z-score),[4],-0.091
same,glycan array binding signal (z-score),[5],-0.107
same,glycan array binding signal (z-score),[6],-0.002
same,glycan array binding signal (z-score),[7],-0.102
same,glycan array binding signal (z-score),[8],-0.081
same,glycan array binding signal (z-score),[9],-0.08
same,glycan array binding signal (z-score),[10],-0.082
same,glycan array binding signal (z-score),[11],-0.083
same,glycan array binding signal (z-score),[12],-0.075
same,glycan array binding signal (z-score),[13],-0.066
same,glycan array binding signal (z-score),[14],-0.094
same,glycan array binding signal (z-score),[15],-0.1
same,glycan array binding signal (z-score),[16],-0.075
same,glycan array binding signal (z-score),[17],-0.094
same,glycan array binding signal (z-score),[18],-0.095
same,glycan array binding signal (z-score),[19],-0.073
same,glycan array binding signal (z-score),[20],-0.09
same,glycan array binding signal (z-score),[21],-0.106
same,glycan array binding signal (z-score),[22],-0.079
same,glycan array binding signal (z-score),[23],-0.085
same,glycan array binding signal (z-score),[24],10.3
same,glycan array binding signal (z-score),[25],13
same,glycan array binding signal (z-score),[26],10.7
same,glycan array binding signal (z-score),[27],-0.103
same,glycan array binding signal (z-score),[28],-0.109
same,glycan array binding signal (z-score),[29],-0.079
same,glycan array binding signal (z-score),[30],-0.108
same,glycan array binding signal (z-score),[31],-0.097
same,glycan array binding signal (z-score),[32],-0.069
same,glycan array binding signal (z-score),[33],-0.096
same,glycan array binding signal (z-score),[34],-0.076
same,glycan array binding signal (z-score),[35],-0.07
